Measured values as given in the supplement of paper PMC10126150.
Values marked as one replicate rest on one cluster of the flow cell; about a third of the high ones do not repeat.

system: ATP; assay: switch fluorescence ratio, 500 uM ATP over buffer (Cy3 cluster intensity, sum of 5 cycles each) (fold (ratio)); higher = stronger signal-on switching upon ATP binding; sequences stand for … in TCGTCGGCAGCGTCAGATGTGTATAAGAGACAGTTTTTTTTTTTTTTTTTTTTTTTTT…TC; details: aptamer strand: ATP DNA aptamer (quencher-CACCTGGGGGAGTATTGCGGAGGAAGG + anchor), 100 nM annealed; ATP concentration: 500 uM; one replicate
In short: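 After annealing to 100 nM quencher-labelled ATP aptamer, Cy3-labelled switching-strand clusters on a modified Illumina MiSeq flow-cell were imaged in selection buffer. A second image followed after 15 min with 500 uM ATP at 22 °C, and five such buffer/ATP cycles were done, each separated by NaOH stripping and re-annealing. The fluorescence ratio, averaged per switch-domain sequence, is summed target-cycle over summed buffer-cycle Cy3 intensity per cluster, with clusters outside 100-1000 RFU excluded.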
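Further: ATP exposure 15 min at 22 °C before imaging.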

Sequence | switch fluorescence ratio
TGCCGGGCGG | 1.23
TGCCGTCTGG | 0.989
TGCCGTGGCG | 0.925
TGCCGTTGAA | 1.04
TGCCTAATGG | 1.03
TGCCTACTTC | 0.978
TGCCTAGCTG | 1.04
TGCCTCTGAG | 1.04
TGCCTGAGCA | 0.977
TGCCTGAGGA | 0.995
TGCCTGAGGC | 1.01
TGCCTTAGCA | 1.02
TGCGAGCTTA | 1.03
TGCGATCTCT | 1.1
TGCGATTCCG | 1.05
TGCGATTTGA | 1.01
TGCGCGATGG | 1.7
TGCGCGCCTA | 0.958
TGCGCGTGCT | 1.02
TGCGCGTGGC | 1.01
TGCGCT | 0.992
TGCGCTATCC | 1.94
TGCGCTTGAC | 1.59
TGCGGAATCT | 1.06
TGCGGAGAGG | 1.03
TGCGGATCGG | 0.981

Sequence | switch fluorescence ratio
TGCGGCCAAC | 1.01
TGCGGCGTGG | 0.994
TGCGGGAAAT | 0.968
TGCGGGGCGA | 0.981
TGCGGGTTAC | 1.05
TGCGGTAGGC | 1.02
TGCGGTAGTC | 0.937
TGCGGTTCCT | 1.05
TGCGTATAAG | 0.98
TGCGTATCAG | 0.949
TGCGTCTGGA | 1.03
TGCGTGCGGG | 1.04
TGCGTGGTAT | 0.992
TGCGTGTGCA | 0.974
TGCGTTATAC | 2.5
TGCTAAATCG | 0.955
TGCTAAGGGA | 1.05
TGCTACTATA | 1.11
TGCTAGGCGA | 1.03
TGCTATCCTA | 1.03
TGCTATTTCC | 1.06
TGCTCAAGGG | 1.01
TGCTCAATTG | 1
TGCTCAGCT | 1.07
TGCTCTGGAT | 1.05
TGCTGAATCC | 1.02

Sequence | switch fluorescence ratio
TGCTGACATG | 0.978
TGCTGAGTAT | 0.979
TGCTGCGATA | 1.33
TGCTGTAGTG | 0.949
TGCTGTGTCA | 0.972
TGCTGTTAGG | 0.962
TGCTGTTAGT | 0.969
TGCTTAACGC | 1.07
TGCTTAGTCG | 1.06
TGCTTCAGAG | 1.05
TGCTTCGTTA | 1.09
TGCTTCTGGT | 1
TGCTTGCTT | 1.07
TGCTTTACCT | 1.23
TGCTTTCGTA | 0.991
TGCTTTGGCC | 1.08
TGCTTTTAAA | 0.964
TGGAAAAACC | 1.06
TGGAAAATCC | 0.99
TGGAAAGCGG | 1.11
TGGAAATC | 0.975
TGGAAATCAT | 1.01
TGGAAGGCGA | 1
TGGAATATAT | 0.975
TGGACATAAA | 0.987
